Experimental data as given in the supplement of paper PMC11417369.
± gives the standard deviation of the averaged measurements. Some of the results follow.

What follows are sequences tested on PfAP2-G AP2 domain (GST-tagged) (assay: gcPBM binding intensity (ln(normalized median fluorescence intensity)); higher = stronger DNA binding).
Procedure, shortened: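 GST-tagged P. falciparum DNA-binding domains, expressed in E. coli (about 25 μg on average), were applied for 1 h to an Agilent 4 × 180k array of primer-extended double-stranded 36-bp intergenic genomic probes plus negative controls. The binding buffer was 1× PBS with 1% milk, 0.2 mg/ml BSA, 0.5% salmon testes DNA and 0.03% Triton X-100. Bound protein was detected with Alexa488 anti-GST antibody and scanned at 488 nm. Binding intensity is the highest Masliner-normalised natural-log median intensity across replicate spots of either probe orientation.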

Sequence | gcPBM binding intensity (ln)
CATATGCATACTATACGTACATATGTATATAATATA [XGTACX_site7738] | 11.4 ± 0.87
ATATATATATTTTTTAAACACACACCGAAATATTTG [CACACA_site8937] | 10.2 ± 0.14
TTAATTAAAACGAATACACACATAAATATATAAAAG [CACACA_site1254] | 10.3 ± 0.24
TTTTATTATTGAATACTAGTATATATAATATGAAGA [CACACA_negctrl_site910] | 10.1 ± 0.35
AAAATATATATATATATATATATATGTATACTCCTA [XGTACX_negctrl_site312] | 10 ± 0.29
TTATTTATAAATATTAATTTTTTTTTTTTTTTTTTT [XGTACX_negctrl_site105] | 10.3 ± 0.28
TTTTATGTTTCAAAATGTACATTAAAATATACCATA [XGTACX_site1713] | 11 ± 0.48
AAATTAAAAAGACATTCACACATTTTCATCTTAACA [CACACA_site5221] | 9.76 ± 0.28
AAACATATATATATTATATATATATATATATATATG [GTGCAC_negctrl_site182] | 9.65 ± 0.014
TAACATATAATATTCACACACATATATATATTATAT [CACACA_site988] | 9.825 ± 0.035
TGTAGGTATTATTATACACACATAAAAAAAAAAAAA [CACACA_site3598] | 10 ± 0.45
TAAAATATTATAAAATGTACAAAACATATAAATATA [XGTACX_site5315] | 10.6 ± 0.4
TATTATTATCTTACCACACACAATGTACGAAAAGAT [CACACA_site352] | 11 ± 0.61
AATATATATAAATATTGTACAAAAATATATATATAT [XGTACX_site2910] | 10.8 ± 0.57
ATATATGATGTAAAAGCACACATATATATATATATA [CACACA_site9330] | 10.2 ± 0.47
TCCCTCTTTTTATTCTCACACACGTTTATATATAAA [CACACA_site1644] | 10.3 ± 0.41
AAACATCTTTACAACGTCCCTCCTTTTTTATGTACC [GTGCAC_negctrl_site528] | 10.3 ± 0.13
TATATTTTCTATAGGTGTACTCCACATGCGGTGTTA [XGTACX_site7471] | 11.6 ± 0.95
ATATTGATACATCCAATACACACTACATATAATGAT [CACACA_site1874] | 10.15 ± 0.042

Sequence | gcPBM binding intensity (ln)
AAAAATATATAACAAAGTACATATATATTTAGTAAT [XGTACX_site8791] | 10.9 ± 0.7
GGAAAAAAACTTATGAGTACACATAAATATAGCACA [XGTACX_site6686] | 11.5 ± 0.96
AAAAAAATTAAATCAAGTACTCATTCTTAAATTATA [XGTACX_site1274] | 11.1 ± 0.6
TATATAAACATATAAACATGCAATATATATATGTTA [TGCATGCA_site765] | 9.405 ± 0.078
TTTTTAAATTATTTGAAAAAAAGAAAATTATAAACA [CACACA_negctrl_site1599] | 9.76 ± 0.057
AACAGAAGCACATACACACACTCAAAAAAAAAAAAA [CACACA_site5652] | 10.1 ± 0.43
TAAATAAGGAAGGAAACACACATTAAAAAATAAATA [CACACA_site618] | 10.03 ± 0.057
ATTTTATTCTAAAAAGGTACACATATTATTTTATGA [XGTACX_site7233] | 11.3 ± 0.91
CATGTATAATATAATACACACTATATAATATACACC [CACACA_site5267] | 10.1 ± 0.19
ATTAATATATATGGATGTACTTATGTATGTATGCAT [XGTACX_site2263] | 11.1 ± 0.52
ATAATAATATATATTACACACGCATCGTTCATTTAT [CACACA_site8752] | 9.97 ± 0.042
GGAAAAACCATTCGCACACACACATAATATATAATA [CACACA_site1424] | 10.1 ± 0.27
CTTAAAAAAAAAAAATGTACACATAAAAAAAATACA [XGTACX_site6700] | 11.5 ± 0.94
TTTAATTGATAATGAAGACAATTATATGCATCCAAA [TGCATGCA_negctrl_site138] | 9.965 ± 0.021
TTATTGTCTTCTCATATACACACTTTTATGACTATC [CACACA_site3142] | 10.3 ± 0.27
TCTTACTAATATCGCACACACATATGTAGACGGGAT [CACACA_site87] | 10.2 ± 0.16
TATTTATATGGACACACACACATATAAATAAATAAA [CACACA_site6346] | 11 ± 0.83
ATGGCCATAATATAGACACACATATATAAATATATA [CACACA_site2230] | 10.1 ± 0.35
CGATATGTTCAATATTGTACTATTTATAATAATATG [XGTACX_site3051] | 11 ± 0.69

Sequence | gcPBM binding intensity (ln)
TATTGACAAAATAGCTGTACAAATTAAAAGAAATAA [XGTACX_site4415] | 10.8 ± 0.49
TTTTTATTACATAATTAAAAAAAATAATAAAATAAA [XGTACX_negctrl_site249] | 9.69 ± 0.16
TTTTTTTTTTAATTCGCACACTGTCTTCATACAATT [CACACA_site1379] | 10.11 ± 0.078
ATATATATATATTTATGTACTTAATAATTTATTCAC [XGTACX_site7301] | 11.3 ± 0.9
TGCAGTCTGGAGAAAAGTACATAGTATCTGGTAACC [XGTACX_site2019] | 11.4 ± 0.87
ATGGTACACAAATATACATGCAATAATAAAAAAAAA [TGCATGCA_site879] | 11 ± 1.1
TAATATCTAAAAAATATATTTTTTATTTTTTATTAA [CACACA_negctrl_site510] | 9.495 ± 0.035
ATATCATTAAAAGGATGTACATATGTGTATACAATA [XGTACX_site871] | 11.2 ± 0.61
TACATACATACATACACACACACATATATATACATA [CACACA_site853] | 10.5 ± 0.3
TAAAAAATATAAACTGCACACACAAAAAAAAAAGAG [CACACA_site8379] | 10.9 ± 0.64
AATTTAAAATAATATTGTACTTAGATATAAATATGA [XGTACX_site4198] | 11 ± 0.78
ATGGGAATATAATTATGTACATATAAAAATTATAAA [XGTACX_site5336] | 11.2 ± 0.73
TAATTATGCAGACACACACACACACGCAACTAAAAA [CACACA_site7253] | 10.3 ± 0.33
CATTAATATATATATACATGCACGTTTTAAAAAAAA [TGCATGCA_site875] | 10.1 ± 0.23
TAACAAAGGAAAGATATACACACGTATGCATGATAA [CACACA_site2520] | 10.09 ± 0.021
TCATTTCACGGACACACACACACAATATATTTCCTT [CACACA_site6023] | 11.4 ± 0.75
AAAAAATATTTTTACAGTACATATATATAAAATGTT [XGTACX_site3215] | 10.9 ± 0.58
ATATTTTTCAAACATCGTACATTATGAGTTAAAATT [XGTACX_site584] | 10.8 ± 0.56
